# Data: PMC4336329 (PLoS ONE, 2015)
# About 2,200 (0.71%) of roughly 310,000 compounds showed an effect of 50% or more. Effects have a minus sign here. The list shows a part of the results.
# Biological target: human ether-à-go-go-related gene (hERG) potassium channel (human, UniProt Q12809)
# Assay: primary screen, population patch clamp on CHO cells stably expressing hERG
# Sequence of human ether-à-go-go-related gene (hERG) potassium channel (Q12809 whole entry, looked up): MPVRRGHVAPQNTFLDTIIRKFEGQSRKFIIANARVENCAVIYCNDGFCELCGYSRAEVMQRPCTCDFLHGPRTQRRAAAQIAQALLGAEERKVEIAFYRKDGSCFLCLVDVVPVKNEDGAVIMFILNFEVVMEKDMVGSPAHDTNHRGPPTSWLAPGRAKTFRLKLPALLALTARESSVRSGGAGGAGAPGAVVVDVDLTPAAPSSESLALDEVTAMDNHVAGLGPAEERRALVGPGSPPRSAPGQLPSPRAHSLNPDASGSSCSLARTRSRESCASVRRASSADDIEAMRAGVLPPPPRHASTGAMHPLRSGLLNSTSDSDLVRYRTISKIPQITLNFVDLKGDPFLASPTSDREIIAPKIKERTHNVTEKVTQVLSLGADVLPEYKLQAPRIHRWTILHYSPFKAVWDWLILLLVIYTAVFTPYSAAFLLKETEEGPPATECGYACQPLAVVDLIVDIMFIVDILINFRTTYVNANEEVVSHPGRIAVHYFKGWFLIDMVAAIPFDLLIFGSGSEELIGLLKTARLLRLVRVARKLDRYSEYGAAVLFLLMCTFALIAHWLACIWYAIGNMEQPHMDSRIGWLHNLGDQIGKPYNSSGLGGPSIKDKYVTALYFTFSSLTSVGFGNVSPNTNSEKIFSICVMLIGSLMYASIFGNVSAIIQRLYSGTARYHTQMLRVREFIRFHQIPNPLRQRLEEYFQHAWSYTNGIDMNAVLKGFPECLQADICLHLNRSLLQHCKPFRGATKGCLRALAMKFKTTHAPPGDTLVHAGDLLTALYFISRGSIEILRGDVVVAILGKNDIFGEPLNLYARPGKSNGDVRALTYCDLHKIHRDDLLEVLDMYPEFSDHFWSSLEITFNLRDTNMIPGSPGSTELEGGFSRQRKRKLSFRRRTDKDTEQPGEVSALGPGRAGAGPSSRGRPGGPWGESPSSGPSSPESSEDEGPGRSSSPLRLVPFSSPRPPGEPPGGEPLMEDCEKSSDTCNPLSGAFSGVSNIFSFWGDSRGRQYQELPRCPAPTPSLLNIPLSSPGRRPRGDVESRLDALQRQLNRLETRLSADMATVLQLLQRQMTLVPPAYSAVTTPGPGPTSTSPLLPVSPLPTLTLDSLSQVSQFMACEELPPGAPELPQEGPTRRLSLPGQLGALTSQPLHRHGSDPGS
row,SMILES,"hERG current change (%, negative = inhibition) at 1uM [%]"
1,CC1CCc2ccccc2N1C(N)=Nc1ccccc1.Cl (stereo not shown),12.5
2,CC(O)CC(C(=O)NNc1ccccc1)C(=O)NNc1ccccc1 (stereo not shown),20.8
3,COc1cccc(NC(=O)COC(=O)c2cc(S(=O)(=O)N3CCOCC3)ccc2C)c1,7.5
4,CCOc1ccc(NS(=O)(=O)c2ccc3c(c2)n(C)c(=O)n3C)cc1,6.36
5,O=c1ccc(-c2nc3ccccc3n2Cc2ccccc2Cl)c[nH]1,4.18
6,Cc1ccc(S(=O)(=O)N2CCN(C(=O)c3sccc3-c3ccccc3)CC2)cc1,-7.9
7,CN(C)c1ccc(C2CNC(c3ccc(Cl)c([N+](=O)[O-])c3)c3[nH]c4ccccc4c32)cc1.Cl (stereo not shown),1.29
8,Cc1c(C)n2c(SCC(=O)N3CCCC3)nnc2[nH]c1=O,7.9
9,NC(=O)C1(C(N)=O)OC1c1ccc(Cl)c(Cl)c1 (stereo not shown),9.83
10,CCc1ccc(C2=NN(CCC(=O)N3CCC4(CC3)OCCO4)C(=O)CC2)cc1,-8.64
11,N/C(=N\OC(=O)C1CCCCC1)c1ccc(Cl)cc1,16
12,O=C(Nc1nccs1)C1CCCN1S(=O)(=O)c1ccc(F)cc1 (stereo not shown),3.86
13,O=C(CCOc1ccccc1)NCC(c1ccco1)N1CCCCC1 (stereo not shown),7.67
14,CN(Cc1ccc(Br)cc1)CC(O)COc1cccc(Br)c1 (stereo not shown),9.41
15,N#Cc1nc(-c2ccccc2F)oc1N1CCN(C(=O)c2ccco2)CC1,-6.17
16,NC(=O)c1sc2nc(-c3ccccc3)ccc2c1N,16
17,CCOC(=O)N1CCN(S(=O)(=O)c2ccc(Cl)cc2)CC1,9.52
18,O=C(CSc1nc(C2CC2)nc2ccccc12)Nc1ccccc1N1CCOCC1,15.9
19,O=C(O)C1CCCN1C(=O)Oc1ccccc1 (stereo not shown),-0.952
20,N[C@@H]1CONC1=O,18.7

row,SMILES,"hERG current change (%, negative = inhibition) at 1uM [%]"
1,CCc1cc2c(SCC(=O)O)ncnc2s1,5.49
2,O=C(CSCc1nc2ccccc2[nH]1)Nc1ccccc1,-1.59
3,O=C(N1CCOCC1)C12CC3CC(C1)CC(C(=O)N1CCOCC1)(C3)C2,11.7
4,C=CCC(=O)NC1CC(C)(C)Cc2c1cnn2-c1ccc(C)cc1 (stereo not shown),-20.8
5,CCCn1c(NC(=O)C2CCN(C(=O)c3ccccc3C)CC2)nc2ccccc21,8.78
6,OCCNc1c2c(nc3ccccc13)CCCC2,-15.9
7,O=C(Nc1cccc(NC(=O)c2ccc([N+](=O)[O-])o2)c1)c1ccco1,14.2
8,CCOC(=O)c1nn(-c2ccc(C)c(Cl)c2)c(=O)c(C#N)c1C,9.21
9,COc1ccccc1N1CCN(CCCCOc2ccc(F)cc2)CC1.Cl,-71.5
10,Cn1c(=O)oc2cc(C(=O)c3ccccc3)ccc21,0.415
11,Cc1ccc(S(=O)(=O)Nc2nc3ccccc3nc2NCC2CCCO2)c(C)c1 (stereo not shown),13.3
12,COc1ccc(CN2CCNC(=O)C2CC(=O)NC2CCCCCCC2)cc1C (stereo not shown),12.5
13,COc1ccc(N=C2SC(CC(=O)Nc3ccc(OC)cc3OC)C(=O)N2C)cc1 (stereo not shown),1.39
14,COc1cccc(C(C#N)N2CCCCC2)c1O (stereo not shown),-13.3
15,CCCCn1c(-c2ccncc2)nc2c1c(=O)[nH]c(=O)n2CC(C)C,6.11
16,CCOC(=O)C1CCCN(C(=S)NC(=O)/C=C/c2ccc(F)cc2)C1 (stereo not shown),-5.75
17,O=S(=O)(Nc1cccc(-c2ccc(N3CCCCCC3)nn2)c1)c1ccc(F)cc1,14.4
18,Cl.O=C(NCCCN1CCOCC1)c1coc2ccccc2c1=O,7.61
19,COCCCNC(=O)CCc1nnc(Cc2ccc(-c3ccccc3)cc2)o1,6.2
20,O=C(NCC(c1ccco1)N1CCc2ccccc2C1)c1cccc(Br)c1 (stereo not shown),4.25

row,SMILES,"hERG current change (%, negative = inhibition) at 1uM [%]"
1,COc1cccc(C(=O)NC2CCCc3ccccc32)c1 (stereo not shown),13.6
2,CCCC(=O)N(C)C1=Nc2ccc(Cl)cc2C(c2ccccc2)=[N+]([O-])C1,9.19
3,CC(=O)Nc1nc(C)c(C(C)(C)C)s1,9.66
4,CCOc1ccccc1NC(=O)NNC(=O)COc1cccc(C)c1C,2.31
5,Cc1nnc2ccc(N3CCN(c4ccccn4)CC3)nn12,-22.2
6,COc1ccc(C2N(C(=O)C(F)(F)F)C(C)CN2S(=O)(=O)c2ccc(C)cc2)cc1 (stereo not shown),5.1
7,CC(=O)Nc1ccc(C(=O)OCC(=O)N(c2ccccc2)C2CCS(=O)(=O)C2)cc1 (stereo not shown),12.3
8,COc1ccc2oc(C)c(C(=O)NN)c2c1,5.76
9,C/C(=N\NC(=O)Cc1c(Cl)cccc1Cl)c1cccnc1,12.8
10,CCC(C)[C@H](NC(=O)[C@@H]1Cc2ccccc2CN1)C(=O)NCc1ccc(OC)cc1 (stereo partly shown),-2.07
11,Cc1ccc(-c2nn(-c3ccccc3)cc2C(=O)NCCCN2CCOCC2)cc1,3.91
12,O=C(c1ccc2c(=O)n3c(nc2c1)CCCCC3)N1CCN(c2ccccc2)CC1,13
13,CCOc1ccc(CCNC(=O)c2ccc(CS(=O)Cc3ccc(Cl)cc3)o2)cc1 (stereo not shown),-3.91
14,O=C(CSc1nc2ccccc2c(=O)n1-c1ccccc1)N/N=C/C=C/c1ccccc1[N+](=O)[O-],8.2
15,COC(=O)c1ccc2c(=O)n(CC3CCCO3)c(=S)[nH]c2c1 (stereo not shown),14.9
16,CC1(c2nnc(-c3cccc(Cl)c3)o2)CC(c2ccc(Br)cc2)=NO1 (stereo not shown),11.3
17,Cc1cc(NC(=O)CSc2cn(CCNC(=O)c3ccc(Cl)cc3)c3ccccc23)no1,-4.13
18,CCN1CCN(CCCCOc2ccccc2F)CC1.O=C(O)C(=O)O,-4.42
